Data reported in a compilation of properties of binary mixtures (doi:10.1016/j.molliq.2021.115373).
The densities may have been worked out from excess volumes.

Experiment: xn = mol fraction of the nth substance listed
Conditions: 101 kPa

Which mass density (288.15 K, x1 = 0.3003) does the source give for CC[N+](C)(CC)CCOC.O=S(=O)([N-]S(=O)(=O)C(F)(F)F)C(F)(F)F + O=C1CCCO1 here?
The mass density was 1276.1 kg/m3.

What about the mass density (288.15 K, x1 = 0.4007) of the same molecule?
The mass density was 1313.6 kg/m3.

What about the mass density (288.15 K, x1 = 0.6999) of the same molecule?
Its mass density is 1377.6 kg/m3.

What about the mass density (288.15 K, x1 = 0.8001) of the same molecule?
Its mass density is 1390.4 kg/m3.

And the mass density (288.15 K, x1 = 0.9003)?
Its mass density is 1400.8 kg/m3.

What about the mass density (288.15 K, x1 = 1) of the same molecule?
The mass density was 1409.5 kg/m3.

What about the mass density (293.15 K, x1 = 0.2006) of the same molecule?
The mass density was 1217.2 kg/m3.

And the mass density (293.15 K, x1 = 0.4007)?
The mass density was 1309.6 kg/m3.

And the mass density (293.15 K, x1 = 0.6002)?
Its mass density is 1357.2 kg/m3.

What about the mass density (293.15 K, x1 = 0.6999) of the same molecule?
The mass density was 1373.2 kg/m3.

What about the mass density (293.15 K, x1 = 0.8001) of the same molecule?
The mass density was 1385.9 kg/m3.

And the mass density (293.15 K, x1 = 0.9003)?
Its mass density is 1396.3 kg/m3.

And the mass density (298.15 K, x1 = 0.2006)?
Its mass density is 1213.5 kg/m3.

And the mass density (298.15 K, x1 = 0.3003)?
The mass density was 1268.2 kg/m3.

And the mass density (298.15 K, x1 = 0.4998)?
The mass density was 1332.5 kg/m3.

And the mass density (298.15 K, x1 = 0.6002)?
The mass density was 1352.9 kg/m3.

What about the mass density (298.15 K, x1 = 0.6999) of the same molecule?
The mass density was 1368.8 kg/m3.

What about the mass density (298.15 K, x1 = 0.8001) of the same molecule?
The mass density was 1381.4 kg/m3.

And the mass density (298.15 K, x1 = 0.9003)?
The mass density was 1391.7 kg/m3.

What about the mass density (298.15 K, x1 = 1) of the same molecule?
The mass density was 1400.3 kg/m3.

What about the mass density (303.15 K, x1 = 0.2006) of the same molecule?
Its mass density is 1209.8 kg/m3.

And the mass density (303.15 K, x1 = 0.3003)?
The mass density was 1264.3 kg/m3.

What about the mass density (303.15 K, x1 = 0.4007) of the same molecule?
The mass density was 1301.5 kg/m3.

What about the mass density (303.15 K, x1 = 0.4998) of the same molecule?
The mass density was 1328.3 kg/m3.

What about the mass density (303.15 K, x1 = 0.6002) of the same molecule?
The mass density was 1348.7 kg/m3.

What about the mass density (303.15 K, x1 = 0.8001) of the same molecule?
Its mass density is 1377 kg/m3.

And the mass density (303.15 K, x1 = 0.9003)?
The mass density was 1387.2 kg/m3.

And the mass density (308.15 K, x1 = 0.2006)?
Its mass density is 1206 kg/m3.

What about the mass density (308.15 K, x1 = 0.6002) of the same molecule?
Its mass density is 1344.4 kg/m3.

What about the mass density (308.15 K, x1 = 0.6999) of the same molecule?
The mass density was 1360.1 kg/m3.

What about the mass density (308.15 K, x1 = 0.8001) of the same molecule?
The mass density was 1372.6 kg/m3.

And the mass density (308.15 K, x1 = 1)?
The mass density was 1391.2 kg/m3.

And the mass density (313.15 K, x1 = 0.3003)?
The mass density was 1256.4 kg/m3.

And the mass density (313.15 K, x1 = 0.4007)?
Its mass density is 1293.3 kg/m3.

What about the mass density (313.15 K, x1 = 0.4998) of the same molecule?
The mass density was 1320 kg/m3.

What about the mass density (313.15 K, x1 = 0.6002) of the same molecule?
Its mass density is 1340.1 kg/m3.

And the mass density (313.15 K, x1 = 0.6999)?
The mass density was 1355.7 kg/m3.

What about the mass density (313.15 K, x1 = 0.9003) of the same molecule?
Its mass density is 1378.3 kg/m3.

What about the mass density (313.15 K, x1 = 1) of the same molecule?
Its mass density is 1386.6 kg/m3.

And the mass density (318.15 K, x1 = 0.2006)?
The mass density was 1198.5 kg/m3.

What about the mass density (318.15 K, x1 = 0.3003) of the same molecule?
The mass density was 1252.5 kg/m3.

And the mass density (318.15 K, x1 = 0.4007)?
The mass density was 1289.2 kg/m3.

What about the mass density (318.15 K, x1 = 0.4998) of the same molecule?
Its mass density is 1315.8 kg/m3.

What about the mass density (318.15 K, x1 = 0.6999) of the same molecule?
Its mass density is 1351.3 kg/m3.

And the mass density (318.15 K, x1 = 0.8001)?
The mass density was 1363.7 kg/m3.

And the mass density (318.15 K, x1 = 0.9003)?
The mass density was 1373.8 kg/m3.

And the mass density (318.15 K, x1 = 1)?
The mass density was 1382.1 kg/m3.

What about the mass density (323.15 K, x1 = 0.3003) of the same molecule?
Its mass density is 1248.6 kg/m3.

What about the mass density (323.15 K, x1 = 0.6999) of the same molecule?
Its mass density is 1347.1 kg/m3.

What about the mass density (323.15 K, x1 = 0.8001) of the same molecule?
Its mass density is 1359.4 kg/m3.

What about the mass density (323.15 K, x1 = 0.9003) of the same molecule?
Its mass density is 1369.4 kg/m3.

And the mass density (323.15 K, x1 = 1)?
Its mass density is 1377.6 kg/m3.

And the mass density (328.15 K, x1 = 0.2006)?
Its mass density is 1191.2 kg/m3.

What about the mass density (328.15 K, x1 = 0.3003) of the same molecule?
The mass density was 1244.8 kg/m3.

What about the mass density (328.15 K, x1 = 0.4007) of the same molecule?
The mass density was 1281.3 kg/m3.

And the mass density (328.15 K, x1 = 0.4998)?
The mass density was 1307.6 kg/m3.

What about the mass density (328.15 K, x1 = 0.6999) of the same molecule?
The mass density was 1342.8 kg/m3.

And the mass density (328.15 K, x1 = 0.8001)?
The mass density was 1355 kg/m3.

And the mass density (328.15 K, x1 = 0.9003)?
Its mass density is 1365 kg/m3.

And the mass density (333.15 K, x1 = 0.2006)?
The mass density was 1187.3 kg/m3.

What about the mass density (333.15 K, x1 = 0.3003) of the same molecule?
The mass density was 1240.8 kg/m3.

And the mass density (333.15 K, x1 = 0.4998)?
The mass density was 1303.5 kg/m3.

And the mass density (333.15 K, x1 = 0.6002)?
The mass density was 1323.2 kg/m3.

What about the mass density (333.15 K, x1 = 0.6999) of the same molecule?
The mass density was 1338.5 kg/m3.

What about the mass density (333.15 K, x1 = 0.8001) of the same molecule?
Its mass density is 1350.7 kg/m3.

What about the mass density (333.15 K, x1 = 0.9003) of the same molecule?
The mass density was 1360.5 kg/m3.

What about the mass density (338.15 K, x1 = 0.2006) of the same molecule?
The mass density was 1183.7 kg/m3.

And the mass density (338.15 K, x1 = 0.3003)?
Its mass density is 1237 kg/m3.

And the mass density (338.15 K, x1 = 0.4007)?
Its mass density is 1273.2 kg/m3.

What about the mass density (338.15 K, x1 = 0.4998) of the same molecule?
Its mass density is 1299.3 kg/m3.

What about the mass density (338.15 K, x1 = 0.6002) of the same molecule?
Its mass density is 1319 kg/m3.

And the mass density (338.15 K, x1 = 0.6999)?
Its mass density is 1334.2 kg/m3.

And the mass density (338.15 K, x1 = 0.8001)?
Its mass density is 1346.3 kg/m3.

And the mass density (338.15 K, x1 = 0.9003)?
Its mass density is 1356.1 kg/m3.

And the mass density (338.15 K, x1 = 1)?
Its mass density is 1364.2 kg/m3.

What about the mass density (343.15 K, x1 = 0.2006) of the same molecule?
Its mass density is 1179.9 kg/m3.

What about the mass density (343.15 K, x1 = 0.4007) of the same molecule?
The mass density was 1269.2 kg/m3.

And the mass density (343.15 K, x1 = 0.6002)?
The mass density was 1314.9 kg/m3.

And the mass density (343.15 K, x1 = 0.6999)?
Its mass density is 1330 kg/m3.

And the mass density (343.15 K, x1 = 0.8001)?
Its mass density is 1342 kg/m3.

What about the mass density (343.15 K, x1 = 0.9003) of the same molecule?
Its mass density is 1351.8 kg/m3.

What about the mass density (343.15 K, x1 = 1) of the same molecule?
The mass density was 1359.8 kg/m3.

And the mass density (348.15 K, x1 = 0.2006)?
The mass density was 1176.3 kg/m3.

What about the mass density (348.15 K, x1 = 0.3003) of the same molecule?
Its mass density is 1229.3 kg/m3.

And the mass density (348.15 K, x1 = 0.4998)?
The mass density was 1291.2 kg/m3.

What about the mass density (348.15 K, x1 = 0.6002) of the same molecule?
The mass density was 1310.8 kg/m3.

And the mass density (348.15 K, x1 = 0.8001)?
The mass density was 1337.7 kg/m3.

And the mass density (348.15 K, x1 = 1)?
The mass density was 1355.4 kg/m3.

And the mass density (353.15 K, x1 = 0.4007)?
The mass density was 1261.2 kg/m3.

And the mass density (353.15 K, x1 = 0.4998)?
The mass density was 1287.2 kg/m3.

What about the mass density (353.15 K, x1 = 0.6999) of the same molecule?
The mass density was 1321.6 kg/m3.

And the mass density (353.15 K, x1 = 0.8001)?
Its mass density is 1333.5 kg/m3.

And the mass density (353.15 K, x1 = 1)?
The mass density was 1351 kg/m3.

What does the source list for O=C1CCCO1 + CC[N+](C)(CC)CCOC.O=S(=O)([N-]S(=O)(=O)C(F)(F)F)C(F)(F)F?
mass density (288.15 K, x2 = 0): 1133.4 kg/m3; mass density (293.15 K, x2 = 0): 1128.7 kg/m3; mass density (298.15 K, x2 = 0): 1123.9 kg/m3; mass density (303.15 K, x2 = 0): 1118.9 kg/m3; mass density (308.15 K, x2 = 0): 1114 kg/m3; mass density (313.15 K, x2 = 0): 1109.2 kg/m3; mass density (318.15 K, x2 = 0): 1104.5 kg/m3; mass density (323.15 K, x2 = 0): 1099.2 kg/m3; mass density (333.15 K, x2 = 0): 1090 kg/m3; mass density (338.15 K, x2 = 0): 1085.2 kg/m3; mass density (343.15 K, x2 = 0): 1080.6 kg/m3; mass density (348.15 K, x2 = 0): 1075.8 kg/m3; mass density (353.15 K, x2 = 0): 1071 kg/m3
